Reference: PubChem BioAssay AID1963576 (National Center for Advancing Translational Sciences (NCATS), 2024)
Screen size: about 46,000 compounds; about 60 (0.1%) were called active. Not shown: some 3% with an inconclusive outcome. Calls follow the shape of the dose curve; as a rule, active = well fitted inhibition curve with a large enough effect; inconclusive = small, poorly fitted or top-dose-only effect; inactive = no such curve, though single readings can be large or run the other way. This is one part of the list.

Experiment: Primary qHTS assay for Inhibitors of ovarian cancer metastasis using an organotypic tumor microenvironment (TME) model. Also: nearly all actives have a fitted effect of over 65% in size.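 As to activity change, negative = inhibition: plate controls were DMSO wells for no effect and tomatine positive control wells for full effect.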
Details: SKOV3ip1-GFP adhesion/invasion on 3D omental model, fluorescence; series mostly up to 45.8 µM; activity change, negative = inhibition: at the top concentration
How it was run: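 Adhesion/invasion was scored as fixed GFP-labeled SKOV3ip1 cell counts (488/509 nm), normalized to DMSO and tomatine controls. Cancer cells in serum-free medium, with four compound doses (0.36-46 umol/L), sat 2 hr at RT then 16 hr at 37 C on a 48 hr fibroblast/mesothelial/ECM culture.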

Activity change, negative = inhibition, inactive:
COc1ccccc1CNC(=O)CCCc1nnc2n(CC(C)C)c(=O)c3sccc3n12 5.11%
CC(C)N(C(=O)CSc1nc2ccc(Cl)cc2[nH]1)c1ccccc1 0.0488%
COc1ccc(-c2cc3nc(-c4ccc(C)cc4)cc(C(F)(F)F)n3n2)cc1 11.7%
CNS(=O)(=O)c1cn(CC(=O)Nc2ccc(OC)cc2OC)cc1S(=O)(=O)NC -2.47%
Cc1ccc(/C=C/c2onc(C)c2S(=O)(=O)N2CCC(C(=O)Nc3ccc(Br)c(C)c3)CC2)cc1 -16.5%
CCC(CC)C(=O)Nc1cc(-c2ccccc2F)nn1-c1ccccc1 5.1%
Cc1ccc(CNS(=O)(=O)c2cc3c(cc2Cl)NC(=O)CO3)o1 -17.1%
NS(=O)(=O)c1ccc(NC(=O)CSc2ccc3ccccc3n2)cc1 -0.984%
COc1ccccc1C(=O)Nc1ccc(C(=O)OCc2cc(=O)n3nc(C)sc3n2)cc1 -1.97%
CCN(CC)C(=O)Cn1c(=O)n(-c2ccccc2)c(=O)c2c3c(sc21)CCC3 1.62%
Cc1ccc(CNC(=O)c2nnc(Cc3ccc(Cl)cc3)o2)cc1 1.38%
COc1ccc(CCN2C(=O)CN(C3CCCCCC3)C(=O)C2c2ccc(OC(C)C)c(OC)c2)cc1OC (configuration not stated) 7.21%
CN(C(=O)c1ccc2c(Cl)c3c(nc2c1)CCC3)c1ccccc1F 6.98%
Cc1csc2nc(-c3ccc(NS(=O)(=O)c4cc(F)ccc4F)cc3)cn12 -6.21%
COc1ccc2c(c1)Cc1sc(NC(=O)c3cccc(Br)c3)nc1-2 -16.4%
Cc1ccc(CNC(=O)CN2C(=O)C3(SCC(=O)N3c3ccc(F)cc3)c3ccccc32)cc1 (configuration not stated) -12.4%
Cc1ccc(NC(=O)Cn2c(-c3cncs3)nc3ccccc32)c(Br)c1 -8.69%
CCOc1ccc(Nc2oc(/C=C/c3cccc(OC)c3)nc2C#N)cc1 12.1%
Cc1cc(C)c2c(n1)sc1c(=O)n(-c3ccccc3C(F)(F)F)nnc12 -0.437%
CCc1ccc(CNC(=O)C2CCCN(S(=O)(=O)c3ccc4c(ccn4C)c3)C2)cc1 (configuration not stated) -26.1%
COc1ccc(CNC(=O)CCc2nc(-c3ccc(OC)cc3)no2)cc1 -0.922%
CCOC(=O)C(CC)Sc1c(CC)cnc2c1c(=O)n(C)c(=O)n2C (configuration not stated) 5.51%
COc1cccc(-c2cn3ncsc3n2)c1 -4.47%
COc1ccc(-c2c(C)c3ccc(O)c(CN4CCCC4)c3oc2=O)cc1OC -0.873%
Cc1ccc(NC(=O)Cn2cc(C(=O)C3CC3)c3ccccc32)cc1C -41.3%
COc1ccc(OCc2nc(-c3ccc(-n4cccc4)cc3)no2)cc1 -8.62%
Cc1ccccc1CSc1ccc(-c2cccs2)nn1 8.65%
O=C(NCC(c1cccs1)S(=O)(=O)c1cccs1)c1cccc(F)c1 (configuration not stated) 34.3%
COc1ccc(-c2nc3ccccc3n3c(-c4ccccc4)c4c(=O)n(C)c(=O)n(C)c4c23)cc1OC -3.81%
O=c1oc2c3c(ccc2c2ccccc12)OCN(Cc1ccc(Cl)cc1)C3 -10.4%
COc1ccc(OC)c(-n2nnc(-c3nc(-c4cc(OC)c(OC)c(OC)c4)no3)c2C)c1 -0.0608%
c1cnc(N2CCN(c3ncc4c(n3)CCNC4)CC2)nc1 8.72%
COc1ccc(-n2nnnc2C2CCN(S(=O)(=O)c3ccc(C)cc3)CC2)cc1 -6.47%
COc1cc2c(cc1OC)C(COc1ccc3c(C)cc(=O)oc3c1)N(C(=O)c1ccccc1C)CC2 (configuration not stated) 0.673%
CC(=O)N1c2ccccc2C(C)(c2ccc(C)cc2)CC1(C)C (configuration not stated) -5.97%
CN1C(=O)c2ccccc2Sc2ccc(NC(=O)N3CCN(c4ccccc4)CC3)cc21 -29.9%
O=C(O)C=Cc1ccc(O)c(O)c1 -24.9%
Cc1ccc(-c2ccc(CCC(=O)O)n2-c2ccc(C(N)=O)cc2)cc1 7.63%
NC(=O)CSc1ncc2c(n1)-c1ccccc1N(Cc1ccc(F)cc1)S2(=O)=O 1.97%
CC1=C(c2ccc(C)cc2)S(=O)(=O)N(Cc2ccc(C(=O)Nc3ccc(C)c(F)c3)cc2)C1=O -5.18%
CCOc1ccc(C(=O)Nc2ccc3nc(SCC(=O)N4CCc5ccccc54)sc3c2)cc1 -5.92%
CC(=O)N1CCc2cc(S(=O)(=O)NC(Cc3ccccc3)C(=O)Nc3cc(C)ccc3C)ccc21 (configuration not stated) -1.84%
Cc1cc(C)c2oc(-c3ccc(Cl)c(NC(=O)c4cccs4)c3)nc2c1 33.5%
COc1ccccc1NC(=O)c1cnc(SCC(=O)N2CCOCC2)n(C)c1=O -13.9%
COc1ccc(-c2cc3ccc(O)c(CN4CCCC4)c3oc2=O)cc1 -7.74%
Cc1ccc(-c2c(C(=O)NCCc3ccccc3)oc(=O)c3ccccc23)cc1 -9.85%
CCCSc1nc(-c2ccccc2)[nH]c1S(=O)(=O)c1ccc(C)cc1 7.75%
COc1ccc(-c2n[nH]c3c2cnc2ccc(F)cc23)cc1 -1.64%
Cc1cc(C)cc(NC(=O)C2CCN(S(=O)(=O)c3cn(C)cn3)CC2)c1 26.4%
O=c1oc2ccc3ccccc3c2cc1-c1nnc(Nc2ccccc2F)s1 -3.68%
CCCOc1ccc(C2C(=O)N(C3CCC(C)CC3)CC(=O)N2Cc2cccc(OC)c2)cc1OC (configuration not stated) 4.63%
COc1ccc(NS(=O)(=O)c2cc3c(cc2C)N(C(C)=O)CCO3)cc1 -5.69%
CC1=Nc2cc(C(=O)N3CCC(C)CC3)ccc2Sc2ccc(Cl)cc21 -4.08%
CCc1cccc(C)c1NC(=O)Cn1nnc(-c2nc(-c3ccccc3F)no2)c1N -9.84%
Cc1cc2c(cc1NS(=O)(=O)c1cccc(C#N)c1)n(C)c(=O)c(=O)n2C 4.39%
COc1ccc(Cl)cc1S(=O)(=O)NCc1ccc2c(c1)CCN2C(=O)c1cccc(C)c1 -8.97%
CC(C)c1ccc(C2NC(=O)c3n[nH]c(-c4cccs4)c32)cc1 (configuration not stated) -0.615%
Cc1cc(CN2CCN(c3c(Br)cnc4nc(-c5ccc(N6CCN(C)CC6)cc5)[nH]c34)CC2)no1 2.81%
Cc1cccc(-c2nc(C)c(CCNC(=O)C(=O)Nc3ccccc3C#N)s2)c1 5.39%
COc1ccc(-n2nnnc2C2CCN(S(=O)(=O)c3ccc(NC(C)=O)cc3)CC2)cc1 4.5%
Cc1cccc(NC(=O)CSc2nc(-c3ccccc3)cc(=O)[nH]2)c1C 3.03%
Cc1ccc(NC(=O)CCC(=O)N2Cc3ccccc3Oc3ncccc32)c(C)c1 10.2%
Cc1ccc(CNC(=O)C(C)n2nc(C)n3c(cc4sccc43)c2=O)cc1 (configuration not stated) 4.4%
CCOC(=O)C1CCCN(C(=O)c2ccc3c(c2)sc2nc(-c4ccc(CC)cc4)cn23)C1 (configuration not stated) -13.3%
Cc1ccc(S(=O)(=O)N(CC(=O)Nc2ccc(Cl)cc2Cl)c2ccccc2C)cc1 -7.84%
COc1ccccc1C(=O)Nc1cccc(C(=O)OCc2cc(=O)n3ccsc3n2)c1 9.27%
COc1ccc(NC(=O)CCc2c(C)nn(-c3ccc(N4CCCCC4)nn3)c2C)cc1Cl 11.9%
Cc1ccccc1NC(=O)CSc1nc2ccccc2c2nc(CCn3cncc3C)nn12 -13.2%
Cc1ccc(Cn2ccnc2SCC(=O)NCc2ccccc2Cl)cc1 -4.29%
CCn1c(C(=O)N2CCC(C(=O)NCCc3ccc(C)cc3)CC2)cc2sccc21 -16.4%

outcome, inactive:
CCOc1ccc(OCC)c(NS(=O)(=O)c2cc(Br)cc3c2N(C(C)=O)C(C)C3)c1 (configuration not stated)
O=C(c1ccc(F)cc1)N1c2nc(-c3ccco3)nn2C2(CCCCC2)[C@@H]2CCCC[C@@H]21
Cc1ccccc1/C=C(\C#N)c1nc(-c2ccc(Cl)cc2)cs1
CC1CN(C(=O)N2CCC(C(=O)NCCCc3ccccc3)CC2)c2ccccc2O1 (configuration not stated)
CC(=O)N1CCc2c(sc3c2c(=O)n(Cc2ccccc2)c(=O)n3Cc2cc(C)ccc2C)C1
CCCCCn1c(CCNC(=O)c2cccc(C)c2)nc2ccccc21
CCCCOc1ccc(CNC(=O)c2ccc3c(c2)N(C)C(=O)C2CCCCN32)cc1 (configuration not stated)
CCC(=O)N1CCc2cc(CNS(=O)(=O)c3cccs3)ccc21
CCSc1nc2c([nH]c3ccccc32)c(=O)n1-c1ccc(F)cc1
Cc1ccc(OCCSc2nc3ccc(NC(=O)c4ccc(F)cc4)cc3s2)cc1
Cc1ccc(Cc2cn3cc(-c4ccc(F)cc4)nc3s2)cc1
Cc1cccc(NC(=O)c2cc(S(=O)(=O)N3CCCCCC3)cn2C)c1C
Cc1cc(C)n(-c2nc(C)c(C)c(=O)n2CC(=O)Nc2ccc(OC(F)(F)F)cc2)n1
Cc1ccc(CNC(=O)c2ccc(Cn3c(=O)c4ccccc4n(CC(=O)Nc4c(C)cc(C)cc4C)c3=O)cc2)cc1
COCCn1c(=O)[nH]c2cc(C(=O)N3CCN(c4ccccc4)CC3)ccc2c1=O
O=C(NCc1ccccc1)c1cccn1-c1nnc(N2CCCC2)s1
CCOc1ccc(CNC(=O)c2nn(-c3ccc(OC)cc3)c(=O)c3c2c2ccccc2n3C)cc1
CCn1cc(C(=O)NCCCOC)c(=O)c2cc(S(=O)(=O)N3CCc4ccccc4C3)ccc21
COc1ccc2c(c1)c1c(c(=O)n(Cc3ccccc3)c(=O)n1Cc1cccc(Cl)c1)n2C
CCOC(=O)C1CCCN(CC(=O)Nc2cc(C)c3c(=O)oc4ccccc4c3n2)C1 (configuration not stated)
Cn1cc(S(=O)(=O)N2CCCCCC2)cc1C(=O)Nc1ccc(Cl)c(C(F)(F)F)c1
COc1ccc(CCNC(=O)c2ccc(Cn3c(=O)c4ccccc4n(Cc4cccc(F)c4)c3=O)cc2)cc1OC
CCc1ccc(NC(=O)C2CCCN2S(=O)(=O)c2ccc3c(c2)CCCC(=O)N3)cc1 (configuration not stated)
CCn1c(=N)c(C(=O)NCc2ccccc2)cc2c(=O)n3cccc(C)c3nc21
CCOc1ccc(CCNC(=O)CN2C(=O)COc3ccc(S(=O)(=O)N4CCCC4)cc32)cc1
Cc1ccc(C(C)C)c(OCC(O)CN2CCN(c3ccccc3F)CC2)c1 (configuration not stated)
N#Cc1c(C(F)(F)F)cc(-c2ccc(F)cc2)nc1SCC(=O)Nc1ccccc1
